From the supplement of paper PMC12632987 come the findings set out here.

The full ranking holds about 4,500 sequences; the median of “median log2 fold change of GCK-ALFA target abundance (FLAG IP / Myc IP barcode read proportion)” is about 0.078, and the lowest 2% start at about -0.6. The list shows a part of the results.

The labels stand for the following.
B1: GBRAP_160_4031 (protein)
chain: KEKLEKLAKYSKEVFEEAKELIEGQSAEQVANLFDVAMGQIIMEAVELGIDNEELEDFIDKLGDEGVATILANPDLSLEERKALIEEAEKKVLEKIEEAK
B2: GBRAP_80_6847 (protein)
chain: DAARLAAARARLAALLPEVAADVDRLVALAQELGVPDADIADLLAALAELAELDPERAAALIRELLADMEELKAEGDAANARAVVQGYAGEALMLAEELE
B3: GBRAP_52_6247 (protein)
chain: MSARLRALARELLELVLAGDEEGARALAREIARTLNEEELEAFADEFARLAEEMPVEDLEKVWRAAEILEEVLEEEGKSEVLVDYLRARTAAAIVKRLQA
B4: GBRAP_160_4826 (protein)
chain: SSSLEKLIKLVDELAEEAKELIKGETHEQRAAIIAVEFGQFILELSSEEKASDELEDEVDEIADDLVETVLENEDLTYEEVTELIEEAREEIKEILKKHL
B5: GBRAP_125_2979 (protein)
chain: ASEEELEDLRLVARALGLDEEDAEEAVELARAHSIRGTLYAIAAALGWEELADAVARLTEEQARAVLRETAAWIRAHPDATPEEVAARLLAVARAALAAA
B6: GBRAP_125_3113 (protein)
chain: SMEELLENLRIVMKALGFDEDDIEEAVKLAKEFGLKQTLIAIFLAEGWEEVAELVDKLTDEQVKEALKELAAYIKAHPDLTPEEVKEKALEIFKELLAKQ
B7: GBRAP_160_4281 (protein)
chain: GEELKKLAEELKKMKEEILSLVDKVSAEEIRTFAVTELGSILMEAIDGGLLSDEQEDELAKIRDELEKELKKLENASPEEIKEAIEKHFNKAIELLEKAA
B8: GBRAP_11_2646 (protein)
chain: MKETLEKAAELAKKAAEAVKKLIEEGVDNEELIKEAEELLKKLKELTEKHLSEADKTEVEVAEELFKEFLADKENKLEYAEQLLAALRVLHGNYLLDRDE
B9: GBRAP_26_5447 (protein)
chain: LEEKLKELEDELDALIDELLPPELAGPAKAELLTLLEEYEEKAEENKDNEEELKKIAEETVEEFRRELELLGVPAEVIEKLTKALKEGLEEILEELKKEK
B10: GBRAP_74_6536 (protein)
chain: SEEKEKVIKEINEAETIEEAIEITEKVLETDDKELARAAVQELLLKAAERKDELTLEEAERLVEVIVRAFEKNGIVVETREEAEALNTVLTKALELEEKA
B11: GBRAP_78_6588 (protein)
chain: DIEEAIDRFLEAAGEAMRLLSKDPSPLAQDLLGELIDEVSEIEEAFEEENDLEEIKEEAEEAAEALRAALEQREQFSPETVAAIERALKAAEELIELLEE
B12: GBRAP_52_5861 (protein)
chain: AVEEALALLEAAIAAMKAGKREEAEKILKEIVENFDEETILAAAELLAERLAEATPEEAEAAFETAELLGEILEKAGFDEEVVTLVEDTIGAAVARVEAR
B13: GBRAP_11_2607 (protein)
chain: KKETLKEAAELAKKLAEAVKKLIEEGVDNEELRKEIEELIKKLKELVEKELDEADQKDVKVIEELWKEALEDPENQVEYLKQLQAAADVLSGNYLLDIEE
B14: GBRAP_125_3151 (protein)
chain: KKEALLRLAEALARAAGFSEEEIAELRRIAEASDPAQTVVAILLAAGFEEAAELAEKVLDKLTEEELEELIALAEASLDESLEEFYERLLALLKELLARL
B15: GBRAP_35_5527 (protein)
chain: DTDRTAAEMLVAYIEDLTLAVPDMPVEDLARLATAAADAAEELAKDLKNDKESLEKLLKALTALRDAIEKHHGDDPLMQEVIARIDAVIKELEKRIKEAE
B16: GBRAP_160_4801 (protein)
chain: MERVEKVVEIVREELEEALEMAKGESNAERVNIFDVELGAAIMEAIELGLLNDEEEEVLADVRDELVAAIAANPDLTDAELAALADDAVARLRERLLALQ
B17: GBRAP_184_5123 (protein)
chain: TLINASVEADDAEELIAKAEAVVKEAAAKGAKLNLHVFAKNLSVEEVIKVIKALGELKKKYPQVEITLDVLDERNEEEVDKLVKAADEAGVRLVVALKEE
B18: GBRAP_80_6863 (protein)
chain: MEEKIKEALELAKEVSEELAKLFEELIKALKELGVSDEDIARIAELVADIIKLDPELALEALKEMLKAAKEYKKEGKGEEALVEVLGIAGEALMEALEKE
B19: GBRAP_184_5114 (protein)
chain: KTLEKEIEVNDVAEAKEKLAAAIAEAVKEKANLNIIVKVKNATVELAKAIMEELAAGKKAGIKNVNVLFESDNITEEVIDALLKTADELGLKNVVIASKE
B20: GBRAP_52_6238 (protein)
chain: MEERLRALAEEILALVRAGDEEGARALARELAATLNEEELRLFIEEFARLAREAPREEIDDVWRAAEIVAEALEEAGWPDVLVDELEARVAAALVEVEER
B21: GBRAP_128_3234 (protein)
chain: MDPELRARVEALIETIINGDVEEAAAATAELVALMGEVSDEEAEEIAELLIEALKDLSVEKLETVADTIEANRGTLDPEKANLANDVLIEALNLAEELEE
B22: GBRAP_52_6105 (protein)
chain: MRERLREEALAILELVKAGRLEEARERIRELVERLNDEELRLLADEIARIAREAAPEDLDAVWRLAEMLAEELERAGKDEVLVDYLLSSTAAALYEREQA
B23: GBRAP_160_4663 (protein)
chain: SEEIEKTLEEIRELLLETLRWTRDLNAEDRRALLDATVGDVLQILFENPLVTDEVEDYAEKVLTELREYVLSNPDLTDEEIEELVEEVVEKIREKIEEES
B24: GBRAP_83_6966 (protein)
chain: MEKITVATTADHVDSAIEAARDLAEEEGYEVTVELIGSPEEVLASARKVAAALKDIPNVEILAAVERVRPEEAERLRRELAAIGEEYGLKVEVRYDIVEP
B25: GBRAP_125_3004 (protein)
chain: AKEEAAANMREIALAAGFSESLAEELAQLVLAGSVRNALAAFALALGNEEAAELIRQLTEEQAVAVVAELAAIARAEGPMSEEEMAARLLALAKAALAAQ
B26: GBRAP_74_6565 (protein)
chain: SEELIEEIKKVAEEKSIKEFAEFILEHIDELDEESLLVALKELLEKVKKEKDKITKEEAELVAEAAAALADKAFTSDASEETLKAAQELIKEVIEIEKKL
B27: GBRAP_128_3203 (protein)
chain: ASPEAVAALRELADRVAATRTDADIAAFAAAIAAALRAGELDLDTLEEIVRYLGSKLDEEDIARAEAALRAALADVGAEALAVALGALGEVLMEKFEKEE
B28: GBRAP_128_3156 (protein)
chain: SVEEVRKKTRELLEKIKESDDETARELARELFELIGTLSPEEAEAAVEVILERLPELSEEKLEILADVAREMMPKYDPYKANLLAEVEVEALNEAEELEE
B29: GBRAP_11_2660 (protein)
chain: KKEIYEEMAKLAEELAKALEELIKKGVDDEELIEKIEKLLEEIEKLAEEHADEAIKSDVEVAKELWEEFKKDPENKEQYAKELLAAVRVLHGNLLLEADE

Sequence of GABARAP, O95166 (O95166 whole entry, the tested form may be a part): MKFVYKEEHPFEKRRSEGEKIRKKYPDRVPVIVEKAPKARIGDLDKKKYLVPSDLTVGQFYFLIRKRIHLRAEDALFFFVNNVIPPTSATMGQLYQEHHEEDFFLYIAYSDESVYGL

The target of the assay is GABARAP, O95166. As to the kind of experiment: median log2 fold change of GCK-ALFA target abundance (FLAG IP / Myc IP barcode read proportion) (log2 ratio); each designed protein is fused to an ALFA-tag nanobody in HEK293 cells to bring the named protein to FLAG-tagged glucokinase (GCK); Myc marks an untargeted standard; higher = target protein stabilised (more abundant). Particulars: target protein: 3xFLAG-MCP-GCK-ALFA reporter; HEK293 landing pad (RPLP). Summed up:
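The readout is target abundance, the per-binder median log2 ratio of FLAG to Myc barcode read proportions. It came from HEK293 landing-pad cells carrying a recombined ALFA-nanobody-fused binder library, induced with 2 μg mL^−1 doxycycline and transfected with a plasmid for a FLAG-tagged target and a Myc-tagged standard. After 48 h, lysates were immunoprecipitated with anti-FLAG and anti-Myc, and circular RNA barcodes were reverse transcribed, amplified and sequenced. Each barcode needed a proportion of at least 10^−7 in both replicates and each binder at least 3 barcodes per replicate, a pseudocount of 10^−6 was added, and the replicates were pooled.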
Regarding B1, the “median log2 fold change” value turned out to be 0.0473.
With B2, the “median log2 fold change” value came to 0.0197.
Take B3: the “median log2 fold change” value was -0.122.
In the case of B4 it was -0.33; in that of B5, -0.341.
As to B6, the “median log2 fold change” value was -0.272.
In the case of B7 it was 0.321.
In the case of B8, the “median log2 fold change” value is 0.381.
In the case of B9 it was 0.457; in that of B10, -0.769; in that of B11, -0.32.
Next, B12: -0.00948; B13: 0.245.
On to B14, for which the “median log2 fold change” value is -0.289.
On to B15, for which the “median log2 fold change” value is 0.0739.
In the case of B16 it was -0.0228; in that of B17, -0.0195.
Take B18: the “median log2 fold change” value is 0.0754.
In the case of B19 it was 0.119; in that of B20, -0.39; in that of B21, -0.0001.
Turning to B22, the “median log2 fold change” value turned out to be 0.0244.
Next, B23: -0.169; B24: 0.0823; B25: 0.145.
Next, B26: -0.00918; B27: 0.0555.
In the case of B28 it was -0.269; in that of B29, 0.304.
